# Assay results reported in PubChem BioAssay AID1347417 (National Center for Advancing Translational Sciences (NCATS), 2020).
# Among all 120,000 compounds or so, about 5,300 (4.4%) were called active. Inconclusive results, whose numbers are uncertain, are shown with a selection of clear calls. The call rests on the fitted dose curve; in most records, active means well fitted inhibition curve with a large enough effect; inconclusive means small, poorly fitted or top-dose-only effect; inactive means no such curve, though single readings can be large or run the other way. A potency beside an inconclusive call is a rough fit, not a confirmed value.
# Assay: qHTS Primary assay for Inhibitors of Plasmodium falciparum Dd2 growth in vitro; further: nearly all actives have a fitted effect of over 65% in size;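 on activity, negative = inhibition: plate controls were DMSO vehicle for no effect and reference drug for full effect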
# Details: P. falciparum Dd2 growth, SYBR Green, 72 h; activity, negative = inhibition: at 28.9 µM (top of the series) unless noted; series mostly up to 28.9 µM
# How it was run: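 Readout: SYBR Green fluorescence, 485 nm excitation, 535 nm emission, after ~16 h lysis at 37C. Before that, Dd2-infected red cells (2.5% hematocrit) grew 72 h with compound, 29 uM top final concentration.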
# Potency means the concentration at half of the fitted maximal effect; tags describe the fitted curve by direction and shape.
SMILES,Potency,"activity, negative = inhibition"
CCc1nc(-c2c3n(c(=O)n(Cc4ccc(C#N)cc4)c2=O)CCCC3)no1,"inconclusive: 17.8 µM [inhibitor, single point]",
COCCCNC(=O)CSc1nc(-c2ccccc2)[nH]c1-c1ccc(C)cc1,"inconclusive: 20 µM [inhibitor, single point]",
O=C(c1nc(-c2ccc(F)cc2)c2cnccn12)N1CCOCC1,"inconclusive: 11.2 µM [inhibitor, partial curve, poor fit]",
COc1cccc(C(=O)N2CCC3(CC2)NC(=O)N(Cc2ccccc2)C3=O)c1OC,active: 8.91 µM,
O=C(c1ccsc1)N1CCC(Oc2ccccc2-c2nc(C3CC3)no2)C1 (configuration not stated),inactive,
CC(=O)c1cc(C(=O)N2C[C@@H](CN3CCCN(C)CC3)[C@@H](CO)C2)cs1,inactive,
COCCN1C(=O)c2ccccc2C(C(=O)Nc2ccc(C)cn2)C12CCCCC2 (configuration not stated),"inconclusive: 8.91 µM [inhibitor, partial curve, poor fit]",
COc1ccc(-c2cnc(C)o2)cc1S(=O)(=O)Nc1ccc(C)c(N(C)C)c1,"inconclusive: 8.91 µM [inhibitor, single point]",
O=C(C[C@@H]1O[C@H](CNS(=O)(=O)c2ccccc2)[C@@H](O)[C@H]1O)N1CCN(c2ccccc2)CC1,inactive,
Cc1ccc(NC(=O)CCC(=O)N2Cc3ccccc3Oc3ncccc32)cc1,"inconclusive: 17.8 µM [inhibitor, single point]",
CCN1CCN(CCNc2ncncc2-c2nc(-c3ccccc3)no2)CC1,inactive,
CCn1cc(S(=O)(=O)NCC2Cn3cccc3CN2Cc2ccccc2)cn1 (configuration not stated),"inconclusive: 12.6 µM [inhibitor, single point]",
COc1ccc2cc(C(=O)N3CCC4(CC3)CC(C(=O)N3CCOCC3)N(C)C4)[nH]c2c1 (configuration not stated),"inconclusive: 17.8 µM [inhibitor, single point]",
COc1ccc(CCNC(=O)c2ccc3c(c2)N(Cc2ccc(Cl)cc2)CCS3)c(OC)c1,"inconclusive: 11.2 µM [inhibitor, partial curve, poor fit]",
CC(=O)N1CCN(c2nc3ncccc3o2)CC1,inactive,
CC(C)(C)c1csc(NC(=O)c2ccc3c(c2)OCCN(C2CCC2)C3)n1,"inconclusive: 7.08 µM [inhibitor, partial curve]",
COc1cccc(SCC(=O)NCc2cc3n(n2)CCNC3)c1,inactive,
CCOC(=O)c1cc(-c2ccc(C)cc2)n(CCC(=O)Nc2ccc(OC)c(OC)c2)c1C,"inconclusive: 1.26 µM [inhibitor, single point]",
CCN1CCN(C(=O)c2ccc3c(c2)N(Cc2cccc(F)c2)C(=O)c2ccccc2S3)CC1,"inconclusive: 3.98 µM [inhibitor, partial curve, poor fit]",
C=C[C@H]1CN2CC[C@H]1C[C@@H]2CNS(=O)(=O)Cc1ccccc1,active: 7.08 µM,
Cc1c(Cl)cccc1NC(=O)Cn1c(C)cc2nc3n(c(=O)c21)CCCC3,"inconclusive: 20 µM [inhibitor, single point]",
O=C(CCn1c(=O)c2cccn2c2cccnc21)N1CCN(c2cccc(Cl)c2)CC1,"inconclusive: 11.2 µM [inhibitor, single point]",
Cc1cccc(-c2nc(SCC(=O)Nc3ccc4c(c3)OCO4)c(-c3ccccc3)[nH]2)c1,,inconclusive: -43.5% [inhibitor] [at 5.79 µM]

SMILES,Potency,"activity, negative = inhibition"
Cn1ccnc1C(=O)N1CCC2(CC1)CN(c1ncccn1)CC2CO (configuration not stated),inactive,
COc1ccc(NC(=O)C2CCCN2S(=O)(=O)c2ccc3nc(-c4ccccc4)[nH]c3c2)cc1 (configuration not stated),"inconclusive: 17.8 µM [inhibitor, single point]",
O=C1CCN(Cc2ccccn2)CCCC(c2nc(-c3cnccn3)no2)CCN1 (configuration not stated),"inconclusive: 20 µM [inhibitor, single point]",
COC(=O)c1ccc(NC(=O)C2CCN(C(=O)c3ccc(F)cc3)CC2)cc1,"inconclusive: 17.8 µM [inhibitor, single point]",
Cc1cccc(NC(=O)CCn2nc(-c3ccccc3)c3ccccc3c2=O)c1,"inconclusive: 17.8 µM [inhibitor, single point]",
CC1=C(C(=O)Nc2ccccc2C)C(c2cccnc2)n2nc(SCc3ccccc3F)nc2N1 (configuration not stated),"inconclusive: 20 µM [inhibitor, partial curve, poor fit]",
O=[S+]1([O-])NC2(CCCN(Cc3ccccc3C(F)(F)F)C2)CNc2ccccc21 (configuration not stated),"inconclusive: 11.2 µM [inhibitor, single point]",
CSc1ccc(-c2ccc3c(c2)C(=O)N2CC[C@H](NC(=O)C4CCNCC4)C[C@H]2C(=O)N3)cc1,"inconclusive: 3.98 µM [inhibitor, single point]",
CC(=O)Nc1ccc(CN2CCC3(Cc4ccccc4CN(C(C)=O)C3)C2)cc1 (configuration not stated),,inconclusive: -109% [inhibitor]
COc1ccc(CN2CCNC(=O)C2CC(=O)N(C)Cc2cccnc2)c(F)c1 (configuration not stated),inactive,
CCN(CC)C[C@H]1O[C@H](Cc2cc(-c3ccc(F)cc3)on2)CC[C@@H]1O,active: 7.08 µM,
CN(C)CC(=O)N1CCC2(CC1)NCCc1c2[nH]c2ccccc12,"inconclusive: 8.91 µM [inhibitor, single point]",
CC(=O)N1Cc2ccccc2CC2(CCCN(Cc3ccccn3)C2)C1 (configuration not stated),,inconclusive: -157% [inhibitor]
COc1ccnc(-c2nnc3ccc(N(C)Cc4ccccc4)nn23)c1,"inconclusive: 11.2 µM [inhibitor, partial curve, poor fit]",
CC1=C(C(=O)OC2CCCC2)C(c2ccccc2Cl)CC(=O)N1 (configuration not stated),"inconclusive: 14.1 µM [inhibitor, single point]",
O=[S+]([O-])(c1ccccc1)N1CC2(COCCN(Cc3ccncc3)C2)C1,inactive,
CC(C)c1ccc(OCc2nnc(C(=O)N3CCC[C@@H]3C)n2-c2cccnc2)cc1,inactive,
COCc1nncn1C1CCN(C(=O)c2ccccc2OC(F)(F)F)CC1,active: 10 µM,
COc1ccccc1CNC(=O)c1cnn2c(C)c(Cc3ccc(F)cc3)c(C)nc12,"inconclusive: 17.8 µM [inhibitor, single point]",
O=C(c1ccc(F)cc1)N1Cc2[nH]cnc2C[C@H]1c1nc(-c2ccc(Cl)cc2)no1,"inconclusive: 10 µM [inhibitor, partial curve]",
CC(C)N1CCN(C(=O)c2csc(N3CCN(c4cccc(Cl)c4)CC3)n2)CC1,inactive,
O=C(NCc1ccco1)c1cc2n(n1)CC(c1ccc3c(c1)OCO3)OC2 (configuration not stated),inactive,
COc1cccc(C(=O)N2CCCC(Cc3nc(C4CCOCC4)no3)C2)c1 (configuration not stated),inactive,

SMILES,Potency,"activity, negative = inhibition"
CCOc1ccc2c(n1)CCN(C(=O)CCC1CCCC1)C2,"inconclusive: 10 µM [inhibitor, partial curve, poor fit]",
CN(C)C(=O)N1CCCC(c2nc(-c3ccccc3)no2)CCNC(=O)CC1 (configuration not stated),inactive,
CC(C)N1CCCC2(CCN(S(=O)(=O)c3cccc(F)c3)C2)C1=O (configuration not stated),inactive,
CCn1cc(-c2ccc(C)cc2)cc1C(=O)N1CCCN(C)CC1,"inconclusive: 20 µM [inhibitor, partial curve, poor fit]",
Cc1ccc(Cl)cc1N1CCN(S(=O)(=O)c2cc3[nH]c(=O)c(=O)[nH]c3cc2C)CC1,"inconclusive: 8.91 µM [inhibitor, single point]",
CC1Oc2ccc(NC(=O)c3ccccc3F)cc2CN(C2CCCc3ccccc32)C1=O (configuration not stated),"inconclusive: 2.51 µM [inhibitor, single point]",
CC1CCCN(CCCNC(=O)CN2C(=O)CSc3ccc(S(=O)(=O)N4CCOCC4)cc32)C1 (configuration not stated),inactive,
O=C(NCc1cccs1)c1ccc2c(c1)n(Cc1cccc(F)c1)c(=O)c1ccnn12,active: 5.62 µM,
Fc1ccc(Nc2cnc3ccc(-c4ccccc4)nn23)cc1,"inconclusive: 3.16 µM [inhibitor, single point]",
CC(C)(C)OC(=O)N1CCC(c2c(C(=O)NC3CCCCC3)cnn2-c2cccc(Cl)c2)CC1,active: 8.91 µM,
COCCc1noc([C@@H]2CC(F)(F)CN2C(=O)c2ccc(C)cn2)n1,inactive,
CN(C)C(=O)N1Cc2ccccc2OC2(CCN(C(=O)CCCNC(N)=O)CC2)C1,inactive,
CN(Cc1cccnc1)c1nc2c(c(=O)[nH]1)CCN(Cc1ccc(Cl)cc1)CC2,,inactive: -9.57% [at 5.79 µM]
N#Cc1cccc(NC(=O)N[C@H]2[C@H](O)[C@@H](Oc3ccccc3)[C@@H]3OC[C@H]2O3)c1,inactive,
O=C(Nc1ccccc1)Nc1ccc2n(c1=O)C[C@H]1C[C@@H]2CN(C(=O)c2ccccc2)C1,"inconclusive: 11.2 µM [inhibitor, partial curve, poor fit]",
C[C@@H]1CN(C2(C(=O)NCc3ccncc3)Cc3ccccc3C2)C[C@H](C)O1,inactive,
Cc1cccc(-c2nc(SCC(=O)Nc3ccc4c(c3)OCCO4)c(-c3ccccc3)[nH]2)c1,"inconclusive: 11.2 µM [inhibitor, single point]",
COc1ccc(-n2ccnc2CN2CCN(CC=C(C)C)C(CCO)C2)cc1 (configuration not stated),"inconclusive: 8.91 µM [inhibitor, partial curve, poor fit]",
COc1ccc(-n2nc(C(=O)NCCc3cccc(C)c3)c3c4ccccc4n(C)c3c2=O)cc1Cl,,inconclusive: -77.4% [inhibitor] [at 5.79 µM]
CCC(=O)N1CCC2(CC1)OCC(C(=O)NC1CC1)N2C(=O)c1cccc(OC)c1 (configuration not stated),inactive,
Cc1cc(C)cc(N(CC(=O)NCc2ccccc2Cl)S(=O)(=O)c2c(C)noc2C)c1,"inconclusive: 10 µM [inhibitor, single point]",
